We go through 1 molecule from CN117069831A (SHENZHEN BGI LIFE SCIENCE RES INSTITUTE, dated 2023).

Experiment [1] deals with SARS-CoV-2 野生型假病毒 (SARS-CoV-2). In words: cell-based or functional assay.
Experiment [2] has as its target T1, 非典SARS-CoV-1 spike RBD (SARS-CoV-1).
T1 construct: domain: RBD; also called 非典病毒RBD; 非典SARS-CoV-1RBD
In words: ELISA on coated SARS-CoV-1 RBD, anti human IgG HRP.

B1: R-30-FC (Fc fusion)
chain: QVQLQESGGGLVQSGGSLRLSCTASGGIIRLNSMGWYRQAPGKQREPVATIVSDVGTNYADSVKGRFTISRDNAKNTIYLQMNSLKFEDTAVYYCVADRAFVLRGEYEYWGQGTQVTVSS[letters of human IgG1 Fc omitted]
notes: also called R-30-FC双价纳米抗体; 双价纳米抗体
B1: the “假病毒中和 IC50 (luciferase signal, Opti-HEK293/ACE2 cells)” value in experiment [1] was determined as 1.64 nM. This molecule also showed an EC50 in experiment [2] not above 0.0126 nM.
